± gives the standard deviation of the averaged measurements. The list shows a part of the results.
system: PfAP2-EXP AP2 domain (GST-tagged); assay: gcPBM binding intensity (ln(normalized median fluorescence intensity)); higher = stronger DNA binding
In short: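 DNA-binding domains from P. falciparum, fused to GST and produced in E. coli, were put on an Agilent 4 × 180k double-stranded probe array for 1 h in 1× PBS holding 1% milk, 0.2 mg/ml BSA, 0.5% salmon testes DNA and 0.03% Triton X-100. Probes were primer-extended, 36 bp long and drawn from intergenic genomic regions, with negative controls included. After Alexa488 anti-GST antibody detection and a 488 nm scan, binding intensity was set as the highest Masliner-normalised natural-log median intensity across replicate spots of either probe orientation.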

Row | Sequence | gcPBM binding intensity (ln)
1 | ATCTGCATATATATATGTACATATTTTAGAATGCAC [XGTACX_site708] | 8.77 ± 0.26
2 | GGATAAAATGCTACGAGTACATAAGCATTTTTCCCT [XGTACX_site7796] | 8.73 ± 0.35
3 | TATAAACATATAAAAAGTACATACCAATTAATATTA [XGTACX_site967] | 8.44 ± 0.4
4 | TATTCTGTGTATAAAAGTACAAATATTTAAATGTAT [XGTACX_site8234] | 8.65 ± 0.26
5 | AATATATTCATCATATCAATATTGTCAAGCAAACGA [TGCATGCA_negctrl_site37] | 8.62 ± 0.54
6 | TCTTTTAAAAATATAAAAAGGAATATATAAAAATGT [CACACA_negctrl_site332] | 8.67 ± 0.4
7 | GAATTTATTTTATTTTCACACACAAAAATAAATATC [CACACA_site8762] | 8.51 ± 0.35
8 | AATAAATAGATATATACACACATATATGTGTACATA [CACACA_site7476] | 8.37 ± 0.29
9 | TTATCCATTTTAATCACACATACTTTACTTTGGAAC [CACACA_site5584] | 8.54 ± 0.41
10 | TTCTTTAATAAAATAATCTCAAAGAAAATTTTTTCT [GTGCAC_negctrl_site589] | 7.93 ± 0.36
11 | ATATTATTATAAACTTCACACATTTTATGGGTTTTT [CACACA_site4631] | 8.38 ± 0.32
12 | TACAATTTAAAACACACACACAATAATACATATATA [CACACA_site1251] | 8.8 ± 0.5
13 | TATATTATTTATATTTGTACACAGCGATATGAAATA [XGTACX_site987] | 8.65 ± 0.47
14 | CATAAGCACAAGCACAAGCACACATTTATATATATA [CACACA_site882] | 9.14 ± 0.057
15 | CGCATATTTTATGTTTGTACTCATATGAATATCATA [XGTACX_site4717] | 8.71 ± 0.38
16 | TTGTATATATTAAATTGTACTTATTTTTTGTATATA [XGTACX_site3251] | 8.29 ± 0.28
17 | TATAAATAAATGCGTACACACTAATAAAAAAAAAAA [CACACA_site4630] | 8.52 ± 0.44
18 | ATAAAAATAAAAAGATGTACGTATTTTTTTTTTTTT [XGTACX_site5329] | 8.54 ± 0.071
19 | GAAATAGAGAAACACACACACATATATTTATGTATT [CACACA_site3967] | 8.4 ± 0.43
20 | CATTATTATGATAGTTGTACAATTTTTATAAAAAAT [XGTACX_site4411] | 8.62 ± 0.35
21 | TGGAAAAATAGGCACACACACATATATACCTATATA [CACACA_site4843] | 8.39 ± 0.31
22 | TTTTTTTTTTTTGAGTGTACTAAAATATTACCTTTT [XGTACX_site646] | 8.37 ± 0.5

Row | Sequence | gcPBM binding intensity (ln)
23 | TGAATATTTACTTTAGCACACAATTTGTATTTGATT [CACACA_site960] | 8.59 ± 0.44
24 | AATATTATAAATGATACACACTTAAAATACACCCAC [CACACA_site5498] | 9.12 ± 0.46
25 | AATATATTTTAATACACACACACATATATATATATA [CACACA_site5969] | 10.3 ± 0.34
26 | ATATGTATATAAATGTGTACTTATAAATATATATAT [XGTACX_site3250] | 9.25 ± 0.028
27 | TTTTTTTTAAATATCACACACATATAACATATTCTA [CACACA_site7687] | 8.33 ± 0.4
28 | ATTTTTCATATATATATATTAATATATATATATTAA [CACACA_negctrl_site1681] | 8.65 ± 0.11
29 | GTATTTTTAAATGACACACACATATATATATATATA [CACACA_site1662] | 10.2 ± 0.5
30 | TTTGAACGAAAATACTCACACATATTTATAAACATT [CACACA_site5182] | 8.34 ± 0.49
31 | TGAATATTTATACATGCACACTAAAATAAAGAATCT [CACACA_site5351] | 8.88 ± 0.18
32 | AAAAATATATTATATGTACACACAAAATTAAGGGAT [CACACA_site8384] | 9.04 ± 0.35
33 | AAAATTTCTTTTTTTTGTACATATATAATAATATAT [XGTACX_site7107] | 8.38 ± 0.29
34 | CAGTTAATGTTGGTACTTTATATAAAAATGATATGA [CACACA_negctrl_site1600] | 8.52 ± 0.35
35 | ATAACAACATTTGATAAACACACAGAAGTATAAATA [CACACA_site8739] | 8.8 ± 0.24
36 | TCTTTCTCTCTTCAAAGTACATATAATATATACTTC [XGTACX_site7982] | 8.72 ± 0.24
37 | TTATTAATATTGCATGCACACTATATAATAATTGAA [CACACA_site8258] | 10.11 ± 0.057
38 | AAAATATAGTTATCAATATATAATATTTTTTTTTTA [CACACA_negctrl_site459] | 7.88 ± 0.46
39 | TATAAATAGGCATATACACACTTTTAATATTCATAA [CACACA_site6123] | 8.38 ± 0.44
40 | TTTTTTTTTTTTTGTGTGCACCTTATTTTTTTGTAT [GTGCAC_site9617] | 9.24 ± 0.4
41 | CAAACACCCAAACACACACACACATACATACATACA [CACACA_site8044] | 9.36 ± 0.34
42 | CTATTGTTAAATATAATACACACGTTTTTAAAAATA [CACACA_site2183] | 8.39 ± 0.47
43 | ATAGTAATGCATAAATATATATTATATATATATATA [XGTACX_negctrl_site576] | 9.76 ± 0.24
44 | GTATATATTTTGTATTCATTTGTCACATATAATAGA [CACACA_negctrl_site506] | 8.69 ± 0.5

Reference: the supplement of paper PMC11417369
